Substitutions are numbered along the chain they refer to. Like-named read-outs stand apart in the source and are kept apart here.
B1: Con4-44 (C) (Fc fusion)
chain: [human IgG1 Fc not written out]GGGGGAQPIRQEECDWDPWTCEHMWEVLE
B2: L1-7 (N) (Fc fusion)
chain: MGAQTNFMPMDDLEQRLYEQFILQQGLEGGGGG[human IgG1 Fc not written out]
B3: L1-21 (N) (Fc fusion)
chain: MGAQHTFQPLDELEETLYYQWLYDQLLEGGGGG[human IgG1 Fc not written out]
B4: L1-10 (N) (Fc fusion)
chain: B2 chain with T5Q, N6K, M8Q, M10L, D12E, R16T, I22M, G26A
B5: L1 (N) (Fc fusion)
chain: MGAQKFNPLDELEETLYEQFTFQQLEGGGGG[human IgG1 Fc not written out]
notes: also called Pb L1 (N)
B6: TN-12-9 (N) (Fc fusion)
chain: MGAQFDYCEGVEDPFTFGCDNHLEGGGGG[human IgG1 Fc not written out]

Tests used:
human Ang-2 [1] = target: T1, human Ang-2 (human, UniProt O15123 19-496, limits assumed); test: BIAcore, peptibody captured on Protein G
T1 construct: Sources differ by assay: R&D Systems 623-AN (mixture of 2 truncated versions) for initial screening; also called hAng-2; huAng-2
T1 sequence (looked up): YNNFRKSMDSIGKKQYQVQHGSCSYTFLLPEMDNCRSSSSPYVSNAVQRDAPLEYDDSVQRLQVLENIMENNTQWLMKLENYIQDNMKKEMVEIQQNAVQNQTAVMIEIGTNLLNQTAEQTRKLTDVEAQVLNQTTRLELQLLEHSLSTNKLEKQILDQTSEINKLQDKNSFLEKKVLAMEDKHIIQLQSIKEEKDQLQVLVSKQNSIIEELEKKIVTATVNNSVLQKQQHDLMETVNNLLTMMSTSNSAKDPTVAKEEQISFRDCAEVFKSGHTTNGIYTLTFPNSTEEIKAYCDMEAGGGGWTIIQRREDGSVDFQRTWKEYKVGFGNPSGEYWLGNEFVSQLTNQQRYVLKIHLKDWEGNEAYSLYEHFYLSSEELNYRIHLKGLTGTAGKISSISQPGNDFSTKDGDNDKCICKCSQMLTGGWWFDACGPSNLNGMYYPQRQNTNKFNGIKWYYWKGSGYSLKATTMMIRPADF

human Ang-2 [2] = target: T1, human Ang-2; test: neutralization ELISA vs Tie-2-Fc
human Ang-2 [3] = target: T1, human Ang-2; test: neutralization ELISA vs Tie-2-Fc; remark: listed apart in the source
Description: (§1) Plates were incubated at room temperature for about 1 hour, after which they were washed five times with PBS containing about 0.1 percent Tween-20. […] Absorbance was then read in a spectrophotomer at 370 nm.

murine Ang-2 [4] = target: T2, murine Ang-2 (murine, UniProt O35608 19-496, limits assumed); test: neutralization ELISA vs Tie-2-Fc
T2 construct: also called mAng-2; mouse Ang-2
T2 sequence (looked up): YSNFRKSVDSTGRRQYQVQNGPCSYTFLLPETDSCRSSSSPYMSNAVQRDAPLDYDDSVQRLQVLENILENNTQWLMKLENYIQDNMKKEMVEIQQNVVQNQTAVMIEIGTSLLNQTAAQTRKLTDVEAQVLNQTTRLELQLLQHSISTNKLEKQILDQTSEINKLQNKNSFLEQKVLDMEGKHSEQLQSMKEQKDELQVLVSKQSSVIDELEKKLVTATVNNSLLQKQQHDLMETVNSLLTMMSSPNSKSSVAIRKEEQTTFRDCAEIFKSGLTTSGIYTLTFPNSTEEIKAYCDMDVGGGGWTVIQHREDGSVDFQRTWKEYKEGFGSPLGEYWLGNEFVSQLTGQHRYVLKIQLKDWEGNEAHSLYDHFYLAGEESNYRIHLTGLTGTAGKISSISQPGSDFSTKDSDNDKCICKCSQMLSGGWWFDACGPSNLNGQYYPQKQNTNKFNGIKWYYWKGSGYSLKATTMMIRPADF
Description: as §1

human Ang-1 = target: T3, human Ang-1 (human, UniProt Q15389 16-498, limits assumed); test: neutralization ELISA vs Tie-2-Fc
T3 construct: also called hAng-1
T3 sequence (looked up): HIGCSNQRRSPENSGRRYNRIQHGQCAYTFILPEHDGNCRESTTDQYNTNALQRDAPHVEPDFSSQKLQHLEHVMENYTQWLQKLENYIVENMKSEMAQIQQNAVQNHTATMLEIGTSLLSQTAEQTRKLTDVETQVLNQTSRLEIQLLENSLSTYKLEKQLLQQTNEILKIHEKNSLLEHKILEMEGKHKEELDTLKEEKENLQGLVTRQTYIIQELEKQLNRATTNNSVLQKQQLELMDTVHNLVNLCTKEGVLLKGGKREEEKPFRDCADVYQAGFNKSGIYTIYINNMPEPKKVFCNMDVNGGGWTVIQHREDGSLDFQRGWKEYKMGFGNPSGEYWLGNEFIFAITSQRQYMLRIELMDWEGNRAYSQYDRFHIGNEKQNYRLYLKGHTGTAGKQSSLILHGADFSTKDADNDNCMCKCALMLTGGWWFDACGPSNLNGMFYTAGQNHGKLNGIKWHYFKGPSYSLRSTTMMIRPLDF
Description: as §1

rat Ang-2 = target: T4, rat Ang-2 (rat, UniProt O35462 19-496, limits assumed); test: neutralization ELISA vs Tie-2-Fc
T4 construct: also called rAng-2
T4 sequence (looked up): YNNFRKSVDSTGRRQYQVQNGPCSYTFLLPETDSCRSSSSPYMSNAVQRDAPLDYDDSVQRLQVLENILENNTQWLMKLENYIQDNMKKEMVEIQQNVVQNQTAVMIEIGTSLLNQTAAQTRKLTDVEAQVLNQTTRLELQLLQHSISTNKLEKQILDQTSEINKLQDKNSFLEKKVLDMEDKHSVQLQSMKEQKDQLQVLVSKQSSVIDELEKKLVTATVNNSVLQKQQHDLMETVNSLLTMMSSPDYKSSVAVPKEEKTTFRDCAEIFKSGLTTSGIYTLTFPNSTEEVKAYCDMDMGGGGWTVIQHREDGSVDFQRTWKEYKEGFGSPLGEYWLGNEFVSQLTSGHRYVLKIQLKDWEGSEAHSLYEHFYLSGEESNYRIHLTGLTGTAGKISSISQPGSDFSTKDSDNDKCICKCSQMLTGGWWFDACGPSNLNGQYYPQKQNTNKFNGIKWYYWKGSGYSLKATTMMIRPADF
Description: as §1

cyno Ang-2 = target: T5, cyno Ang-2 (cyno, UniProt A0A2K5VNX6 19-496); test: neutralization ELISA vs Tie-2-Fc
T5 construct: also called cAng-2
T5 sequence: T1 sequence (looked up) with E258G, I279V, F284L, I291V, G410A, A468G, D477G
Description: as §1

human Ang-2 [5] = target: T1, human Ang-2; test: BIAcore, peptibody captured on Protein G; remark: listed apart in the source
murine Ang-2 [6] = target: T2, murine Ang-2; test: BIAcore, peptibody captured on Protein G
human Ang-2 [7] = target: T1, human Ang-2; test: neutralization ELISA vs Tie-2-Fc; remark: listed apart in the source
Description: (§2) Microtiter plates to which human Ang-2 polypeptide was bound were prepared as described for the Affinity ELISA. […] Next, about 100 microliters per well of goat anti-mouse-IgG-HRP (Pierce Chemical CO., catalog #31432) was added at a dilution of 1:10,000 in PBS containing about 1 percent BSA. Plates were incubated at room temperature for about 1 hour, after which they were washed five times with PBS containing about 0.1 percent Tween-20. About 100 microliters per well of TMB substrate (described above) was then added and color was allowed to develop. Absorbance was then read in a spectrophotomer at 370 nm.

murine Ang-2 [8] = target: T2, murine Ang-2; test: neutralization ELISA vs Tie-2-Fc; remark: listed apart in the source
Description: as §2

Binder | Kd (human Ang-2 [1]) [nM] | koff (human Ang-2 [1]) [s⁻¹] | kon (human Ang-2 [1]) [M⁻¹ s⁻¹] | IC50 (human Ang-2 [2]) [nM] | IC50 (human Ang-2 [3]) [nM] | IC50 (murine Ang-2 [4]) [nM] | IC50 (human Ang-1) [nM] | IC50 (rat Ang-2) [nM] | IC50 (cyno Ang-2) [nM] | Kd (human Ang-2 [5]) [nM] | koff (human Ang-2 [5]) [s⁻¹] | kon (human Ang-2 [5]) [M⁻¹ s⁻¹] | Kd (murine Ang-2 [6]) [nM] | koff (murine Ang-2 [6]) [s⁻¹] | kon (murine Ang-2 [6]) [M⁻¹ s⁻¹] | IC50 (human Ang-2 [7]) [nM] | IC50 (murine Ang-2 [8]) [nM]
B1 | 0.21 | 5.9e-05 | 290000 | 0.09 | 0.08 | 0.16 | 43 | 0.22 |  |  |  |  |  |  |  |  | 
B2 | 0.24 | 8.7e-05 | 370000 | 0.03 | 0.046 | 0.063 |  | 0.035 | 0.108 |  |  |  |  |  |  |  | 
B3 | 0.24 | 0.00014 | 560000 | 0.17 | 0.179 | 0.249 |  | 0.204 | 0.608 |  |  |  |  |  |  |  | 
B4 | 0.77 | 0.00011 | 150000 | 0.05 | 0.06 | 0.06 |  | 0.06 |  |  |  |  |  |  |  |  | 
B5 |  |  |  |  |  |  |  |  |  | 3.1 | 0.00091 | 290000 | 0.42 | 0.00023 | 560000 | 6 | 11
B6 |  |  |  |  |  |  |  |  |  | 8.2 | 0.001 | 120000 | 0.32 | 0.00023 | 720000 | 21 | 7.7

Reference: patent US20090054323A1 (published 2009)
